Test results taken from article PMC5679597.
These are yes or no findings as the source states them, for the method shown. Binding seen in cells or lysates may run through a third protein. Some results given as binding are weak or reduced against the parent protein; the word gives no strength. Tags and fused reporters may be left off the sequences shown. Each block holds one binder with its values, some of them ahead of it.

Assays:
Assay in all cases: pull-down; GFP pull-down: GFP-tagged LNX constructs transfected into HEK 293 cells (HEK 293T in Fig 3A) alone or with the partner, captured on GFP-Trap_M beads, western blot; NaCl in the wash up to 500 mM in some cases
[1] = molecular target: T1, GFP-LNX1 PDZ1-4 fragment (aa268-728) (mouse) (UniProt O70263)
T1 sequence: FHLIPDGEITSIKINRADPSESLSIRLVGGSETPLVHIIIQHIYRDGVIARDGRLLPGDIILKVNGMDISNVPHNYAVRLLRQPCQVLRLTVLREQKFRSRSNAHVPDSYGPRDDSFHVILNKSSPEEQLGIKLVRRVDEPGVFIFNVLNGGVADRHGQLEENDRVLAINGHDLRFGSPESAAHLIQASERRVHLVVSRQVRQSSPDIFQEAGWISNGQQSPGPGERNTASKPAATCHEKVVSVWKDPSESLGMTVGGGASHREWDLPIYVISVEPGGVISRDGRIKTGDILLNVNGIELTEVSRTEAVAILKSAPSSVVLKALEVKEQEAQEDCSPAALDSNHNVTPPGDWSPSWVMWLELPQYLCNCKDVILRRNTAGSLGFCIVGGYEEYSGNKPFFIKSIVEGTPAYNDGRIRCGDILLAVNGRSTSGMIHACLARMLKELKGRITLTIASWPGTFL

GFP-tagged LNX2 (mouse) = molecular target: T2, GFP-tagged LNX2 (mouse) (UniProt Q91XL2)
T2 sequence: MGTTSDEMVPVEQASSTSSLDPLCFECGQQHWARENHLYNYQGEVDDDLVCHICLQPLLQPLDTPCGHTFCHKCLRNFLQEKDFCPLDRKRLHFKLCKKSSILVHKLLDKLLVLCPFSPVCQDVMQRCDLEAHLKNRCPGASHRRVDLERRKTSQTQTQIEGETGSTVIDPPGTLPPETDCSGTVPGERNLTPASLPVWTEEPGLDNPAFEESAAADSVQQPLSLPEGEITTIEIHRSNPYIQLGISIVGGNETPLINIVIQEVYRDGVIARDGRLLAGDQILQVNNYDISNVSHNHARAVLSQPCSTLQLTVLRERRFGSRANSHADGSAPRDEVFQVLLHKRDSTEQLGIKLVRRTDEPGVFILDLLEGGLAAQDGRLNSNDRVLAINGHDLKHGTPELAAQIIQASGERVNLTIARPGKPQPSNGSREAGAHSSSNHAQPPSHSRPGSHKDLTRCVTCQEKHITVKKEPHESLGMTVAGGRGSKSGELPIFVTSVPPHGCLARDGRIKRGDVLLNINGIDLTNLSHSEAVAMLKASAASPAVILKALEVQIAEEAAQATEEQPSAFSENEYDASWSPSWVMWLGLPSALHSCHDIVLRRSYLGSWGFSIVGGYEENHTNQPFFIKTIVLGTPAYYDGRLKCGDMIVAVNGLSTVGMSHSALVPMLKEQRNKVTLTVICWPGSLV

[2] = molecular target: T3, GFP-LNX1 PDZ2 (aa377-470) (mouse) (UniProt O70263)
T3 sequence: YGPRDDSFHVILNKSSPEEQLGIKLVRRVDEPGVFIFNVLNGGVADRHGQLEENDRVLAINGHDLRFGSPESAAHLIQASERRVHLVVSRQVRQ

[3] = molecular target: T4, GFP-tagged LNX1p80 (Ligand of Numb protein X1, p80 isoform) (mouse) (UniProt O70263)
T4 sequence: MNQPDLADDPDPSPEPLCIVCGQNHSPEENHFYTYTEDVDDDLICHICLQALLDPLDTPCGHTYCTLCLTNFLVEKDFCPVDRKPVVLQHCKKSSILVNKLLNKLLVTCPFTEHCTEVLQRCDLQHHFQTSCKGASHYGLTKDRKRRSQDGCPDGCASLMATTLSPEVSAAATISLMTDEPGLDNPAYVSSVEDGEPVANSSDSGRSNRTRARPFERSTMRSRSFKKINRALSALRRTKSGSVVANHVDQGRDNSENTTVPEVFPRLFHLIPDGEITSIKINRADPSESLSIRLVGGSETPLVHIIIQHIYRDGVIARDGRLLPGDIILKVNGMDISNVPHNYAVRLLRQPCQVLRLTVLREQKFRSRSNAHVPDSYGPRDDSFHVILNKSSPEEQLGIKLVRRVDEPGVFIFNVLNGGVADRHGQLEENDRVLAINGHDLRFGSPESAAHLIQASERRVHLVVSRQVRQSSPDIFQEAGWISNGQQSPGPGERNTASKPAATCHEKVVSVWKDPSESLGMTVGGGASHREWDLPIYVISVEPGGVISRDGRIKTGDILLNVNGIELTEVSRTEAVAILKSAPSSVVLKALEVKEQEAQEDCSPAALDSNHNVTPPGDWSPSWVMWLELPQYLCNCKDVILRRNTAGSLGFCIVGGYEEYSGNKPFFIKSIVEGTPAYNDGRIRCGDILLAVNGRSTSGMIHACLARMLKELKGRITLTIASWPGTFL

[4] = molecular target: T5, GFP-LNX1 RING-NPAY motif fragment (aa1-277) (mouse) (UniProt O70263)
T5 sequence: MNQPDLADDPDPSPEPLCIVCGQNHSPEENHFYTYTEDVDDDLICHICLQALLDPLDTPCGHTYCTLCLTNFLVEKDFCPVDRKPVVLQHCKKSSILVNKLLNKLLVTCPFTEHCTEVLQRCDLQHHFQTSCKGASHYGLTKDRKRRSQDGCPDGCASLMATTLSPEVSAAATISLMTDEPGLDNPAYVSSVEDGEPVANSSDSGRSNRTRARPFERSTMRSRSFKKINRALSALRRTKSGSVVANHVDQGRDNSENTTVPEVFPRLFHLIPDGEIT

[5] = molecular target: T6, GFP-LNX1 PDZ4 (aa630-725) (mouse) (UniProt O70263)
T6 sequence: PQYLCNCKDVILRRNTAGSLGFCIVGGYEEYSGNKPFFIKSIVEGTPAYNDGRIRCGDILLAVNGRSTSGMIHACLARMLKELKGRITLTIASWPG

binding [1]: binds
binding (GFP-tagged LNX2 (mouse)): binds
binding [2]: binds
binding [3]: binds
B1: KLHL11, transfected, HA or GST epitope-tagged (Fig 1B) (protein, UniProt Q9NVR0 16-708)
chain: ASLQVLEMESMETAAAGSAGLAAEVRGSGTVDFGPGPGISAMEASGGDPGPEAEDFECSSHCSELSWRQNEQRRQGLFCDITLCFGGAGGREFRAHRSVLAAATEYFTPLLSGQFSESRSGRVEMRKWSSEPGPEPDTVEAVIEYMYTGRIRVSTGSVHEVLELADRFLLIRLKEFCGEFLKKKLHLSNCVAIHSLAHMYTLSQLALKAADMIRRNFHKVIQDEEFYTLPFHLIRDWLSDLEITVDSEEVLFETVLKWVQRNAEERERYFEELFKLLRLSQMKPTYLTRHVKPERLVANNEVCVKLVADAVERHALRAENIQSGTCQHPTSHVSLLPRYGQNMDVIMVIGGVSEGGDYLSECVGYFVDEDRWVNLPHIHNHLDGHAVAVTESYVYVAGSMEPGFAKTVERYNPNLNTWEHVCSLMTRKHSFGLTEVKGKLYSIGGHGNFSPGFKDVTVYNPELDKWHNLESAPKILRDVKALAIEDRFVYIAARTPVDRDTEDGLKAVITCYDTETRQWQDVESLPLIDNYCFFQMSVVNSNFYQTASCCPKSYCLENEEAVRKIASQVSDEILESLPPEVLSIEGAAICYYKDDVFIIGGWKNSDDIDKQYRKEAYRYCAERKRWMLLPPMPQPRCRATACHVRIPYRYLHGTQRYPMPQNLMWQKDRIRQMQEIHRHALNMRRVPSSQIEC

binding [4]: binds
B2: Protein numb homolog, endogenous (protein, UniProt P49757 1-651)
chain: MNKLRQSFRRKKDVYVPEASRPHQWQTDEEGVRTGKCSFPVKYLGHVEVDESRGMHICEDAVKRLKAERKFFKGFFGKTGKKAVKAVLWVSADGLRVVDEKTKDLIVDQTIEKVSFCAPDRNFDRAFSYICRDGTTRRWICHCFMAVKDTGERLSHAVGCAFAACLERKQKREKECGVTATFDASRTTFTREGSFRVTTATEQAEREEIMKQMQDAKKAETDKIVVGSSVAPGNTAPSPSSPTSPTSDATTSLEMNNPHAIPRRHAPIEQLARQGSFRGFPALSQKMSPFKRQLSLRINELPSTMQRKTDFPIKNAVPEVEGEAESISSLCSQITNAFSTPEDPFSSAPMTKPVTVVAPQSPTFQANGTDSAFHVLAKPAHTALAPVAMPVRETNPWAHAPDAANKEIAATCSGTEWGQSSGAASPGLFQAGHRRTPSEADRWLEEVSKSVRAQQPQASAAPLQPVLQPPPPTAISQPASPFQGNAFLTSQPVPVGVVPALQPAFVPAQSYPVANGMPYPAPNVPVVGITPSQMVANVFGTAGHPQAAHPHQSPSLVRQQTFPHYEASSATTSPFFKPPAQHLNGSAAFNGVDDGRLASADRHTEVPTGTCPVDPFEAQWAALENKSKQRTNPSPTNPFSSDLQKTFEIEL

binding [1]: binds
binding (GFP-tagged LNX2 (mouse)): no binding
binding [2]: binds
binding [3]: binds
binding [5]: binds
B3: Kinesin-like protein KIF7, endogenous (protein, UniProt Q2M1P5 1-1343)
chain: MGLEAQRLPGAEEAPVRVALRVRPLLPKELLHGHQSCLQVEPGLGRVTLGRDRHFGFHVVLAEDAGQEAVYQACVQPLLEAFFEGFNATVFAYGQTGSGKTYTMGEASVASLLEDEQGIVPRAMAEAFKLIDENDLLDCLVHVSYLEVYKEEFRDLLEVGTASRDIQLREDERGNVVLCGVKEVDVEGLDEVLSLLEMGNAARHTGATHLNHLSSRSHTVFTVTLEQRGRAPSRLPRPAPGQLLVSKFHFVDLAGSERVLKTGSTGERLKESIQINSSLLALGNVISALGDPQRRGSHIPYRDSKITRILKDSLGGNAKTVMIACVSPSSSDFDETLNTLNYASRAQNIRNRATVNWRPEAERPPEETASGARGPPRHRSETRIIHRGRRAPGPATASAAAAMRLGAECARYRACTDAAYSLLRELQAEPGLPGAAARKVRDWLCAVEGERSALSSASGPDSGIESASVEDQAAQGAGGRKEDEGAQQLLTLQNQVARLEEENRDFLAALEDAMEQYKLQSDRLREQQEEMVELRLRLELVRPGWGGPRLLNGLPPGSFVPRPHTAPLGGAHAHVLGMVPPACLPGDEVGSEQRGEQVTNGREAGAELLTEVNRLGSGSSAASEEEEEEEEPPRRTLHLRRNRISNCSQRAGARPGSLPERKGPELCLEELDAAIPGSRAVGGSKARVQARQVPPATASEWRLAQAQQKIRELAINIRMKEELIGELVRTGKAAQALNRQHSQRIRELEQEAEQVRAELSEGQRQLRELEGKELQDAGERSRLQEFRRRVAAAQSQVQVLKEKKQATERLVSLSAQSEKRLQELERNVQLMRQQQGQLQRRLREETEQKRRLEAEMSKRQHRVKELELKHEQQQKILKIKTEEIAAFQRKRRSGSNGSVVSLEQQQKIEEQKKWLDQEMEKVLQQRRALEELGEELHKREAILAKKEALMQEKTGLESKRLRSSQALNEDIVRVSSRLEHLEKELSEKSGQLRQGSAQSQQQIRGEIDSLRQEKDSLLKQRLEIDGKLRQGSLLSPEEERTLFQLDEAIEALDAAIEYKNEAITCRQRVLRASASLLSQCEMNLMAKLSYLSSSETRALLCKYFDKVVTLREEQHQQQIAFSELEMQLEEQQRLVYWLEVALERQRLEMDRQLTLQQKEHEQNMQLLLQQSRDHLGEGLADSRRQYEARIQALEKELGRYMWINQELKQKLGGVNAVGHSRGGEKRSLCSEGRQAPGNEDELHLAPELLWLSPLTEGAPRTREETRDLVHAPLPLTWKRSSLCGEEQGSPEELRQREAAEPLVGRVLPVGEAGLPWNFGPLSKPRRELRRASPGMIDVRKNPL
